This is one part of the list.

The test deals with T1, MBP-FoxP1dN (Mus musculus, UniProt P58462 326-579).
T1 sequence: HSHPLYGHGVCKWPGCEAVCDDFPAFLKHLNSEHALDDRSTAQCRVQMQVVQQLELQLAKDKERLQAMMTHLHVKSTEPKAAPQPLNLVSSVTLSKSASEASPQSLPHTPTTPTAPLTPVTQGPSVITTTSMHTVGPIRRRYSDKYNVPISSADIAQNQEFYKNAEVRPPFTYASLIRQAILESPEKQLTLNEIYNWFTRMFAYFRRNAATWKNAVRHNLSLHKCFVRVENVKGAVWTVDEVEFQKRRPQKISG
In words: PD-seq (MBP pull-down with sequencing); 20 mM Tris-HCl pH 7.5, 100 mM NaCl, 1.5 mM MgCl2, 0.4 uM protein, 0.1 uM dsDNA library, 30 min, room temperature, amylose pull-down; high values mean tight binding. The conditions noted are these: protein: recombinant; tags: His6-MBP; chain copies: 2; dsDNA, one strand shown. In short, it runs like this: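 E. coli-expressed mouse FoxP3 or FoxP1 fragment, N-terminus removed and tagged with His6-MBP, was used at 0.4 µM against 0.1 µM of a Klenow-filled degenerate double-stranded DNA library. After 30 min at room temperature in Tris pH 7.5 buffer with NaCl and MgCl2, complexes were pulled down on amylose resin and washed three times. Binding is pull-down over input reads-per-million enrichment from pooled replicates of the proteinase K-released, PCR-barcoded, Illumina-sequenced DNA.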
On to “GATGATTGTTCTCCCAGCTGATGAATTAAGACGTTCGAGTAAACAAATTTTCCTAATCTTTCTGTTCAAGCGCCATCTAC”, for which the binding signal was 0.984 RPM ratio (pull-down/input). The figure for “GATGATTGTTCTCCCAGCTGATGAATTTGATGGCTCGAGTAAACAAATTTTCCTAATCTTTCTGTTCAAGCGCCATCTAC” is 0.787 RPM ratio (pull-down/input); for “GATGATTGTTCTCCCAGCTGATGAATTACAGACCTCGAGTAAACAAATTTTCCTAATCTTTCTGTTCAAGCGCCATCTAC” it is 0.949 RPM ratio (pull-down/input); for “GATGATTGTTCTCCCAGCTGATGAATTTAACGGATCGAGTAAACAAATTTTCCTAATCTTTCTGTTCAAGCGCCATCTAC” it is 0.828 RPM ratio (pull-down/input). To “GATGATTGTTCTCCCAGCTGATGAATTTGTAGCGTCGAGTAAACAAATTTTCCTAATCTTTCTGTTCAAGCGCCATCTAC” belongs 0.985 RPM ratio (pull-down/input); to “GATGATTGTTCTCCCAGCTGATGAATTAGTAAGGTCGAGTAAACAAATTTTCCTAATCTTTCTGTTCAAGCGCCATCTAC”, 0.892 RPM ratio (pull-down/input); to “GATGATTGTTCTCCCAGCTGATGAATTTTCGCCTTCGAGTAAACAAATTTTCCTAATCTTTCTGTTCAAGCGCCATCTAC”, 0.933 RPM ratio (pull-down/input). As to “GATGATTGTTCTCCCAGCTGATGAATTAGTTCGATCGAGTAAACAAATTTTCCTAATCTTTCTGTTCAAGCGCCATCTAC”, the binding signal is 0.964 RPM ratio (pull-down/input).

Regarding “GATGATTGTTCTCCCAGCTGATGAATTACCTCCATCGAGTAAACAAATTTTCCTAATCTTTCTGTTCAAGCGCCATCTAC”, the binding signal was 0.936 RPM ratio (pull-down/input). As for “GATGATTGTTCTCCCAGCTGATGAATTGCCCGATTCGAGTAAACAAATTTTCCTAATCTTTCTGTTCAAGCGCCATCTAC”, the binding signal is 0.947 RPM ratio (pull-down/input).

“GATGATTGTTCTCCCAGCTGATGAATTTTACTATTCGAGTAAACAAATTTTCCTAATCTTTCTGTTCAAGCGCCATCTAC”: the binding signal is 0.945 RPM ratio (pull-down/input).

On to “GATGATTGTTCTCCCAGCTGATGAATTCCCATCATCGAGTAAACAAATTTTCCTAATCTTTCTGTTCAAGCGCCATCTAC”, for which the binding signal was 0.937 RPM ratio (pull-down/input). As to “GATGATTGTTCTCCCAGCTGATGAATTGTGACTCTCGAGTAAACAAATTTTCCTAATCTTTCTGTTCAAGCGCCATCTAC”, the binding signal was 1.04 RPM ratio (pull-down/input). In the case of “GATGATTGTTCTCCCAGCTGATGAATTTCTCATTTCGAGTAAACAAATTTTCCTAATCTTTCTGTTCAAGCGCCATCTAC”, the binding signal was 0.877 RPM ratio (pull-down/input). “GATGATTGTTCTCCCAGCTGATGAATTACTTAACTCGAGTAAACAAATTTTCCTAATCTTTCTGTTCAAGCGCCATCTAC”: the binding signal is 1.12 RPM ratio (pull-down/input). Consider “GATGATTGTTCTCCCAGCTGATGAATTTCGAAACTCGAGTAAACAAATTTTCCTAATCTTTCTGTTCAAGCGCCATCTAC”, for which the binding signal was 0.842 RPM ratio (pull-down/input). As for “GATGATTGTTCTCCCAGCTGATGAATTGCGCCCCTCGAGTAAACAAATTTTCCTAATCTTTCTGTTCAAGCGCCATCTAC”, the binding signal is 0.966 RPM ratio (pull-down/input). As for “GATGATTGTTCTCCCAGCTGATGAATTGGAGGGGTCGAGTAAACAAATTTTCCTAATCTTTCTGTTCAAGCGCCATCTAC”, the binding signal is 0.734 RPM ratio (pull-down/input). Turning to “GATGATTGTTCTCCCAGCTGATGAATTTTCGTGGTCGAGTAAACAAATTTTCCTAATCTTTCTGTTCAAGCGCCATCTAC”, the binding signal was 0.888 RPM ratio (pull-down/input).

As to “GATGATTGTTCTCCCAGCTGATGAATTACCGCTTTCGAGTAAACAAATTTTCCTAATCTTTCTGTTCAAGCGCCATCTAC”, the binding signal is 1.09 RPM ratio (pull-down/input). “GATGATTGTTCTCCCAGCTGATGAATTGATACTGTCGAGTAAACAAATTTTCCTAATCTTTCTGTTCAAGCGCCATCTAC”: the binding signal was 1.13 RPM ratio (pull-down/input). As to “GATGATTGTTCTCCCAGCTGATGAATTCCCCAAGTCGAGTAAACAAATTTTCCTAATCTTTCTGTTCAAGCGCCATCTAC”, the binding signal is 0.788 RPM ratio (pull-down/input). Turning to “GATGATTGTTCTCCCAGCTGATGAATTCTAATAGTCGAGTAAACAAATTTTCCTAATCTTTCTGTTCAAGCGCCATCTAC”, the binding signal was 0.905 RPM ratio (pull-down/input). “GATGATTGTTCTCCCAGCTGATGAATTCTGGCGATCGAGTAAACAAATTTTCCTAATCTTTCTGTTCAAGCGCCATCTAC”: the binding signal was 0.805 RPM ratio (pull-down/input).

For “GATGATTGTTCTCCCAGCTGATGAATTTCTCTTATCGAGTAAACAAATTTTCCTAATCTTTCTGTTCAAGCGCCATCTAC”, the binding signal is 0.952 RPM ratio (pull-down/input). For “GATGATTGTTCTCCCAGCTGATGAATTAAAAGGATCGAGTAAACAAATTTTCCTAATCTTTCTGTTCAAGCGCCATCTAC”, the binding signal was 0.837 RPM ratio (pull-down/input). The figure for “GATGATTGTTCTCCCAGCTGATGAATTCTGCGGTTCGAGTAAACAAATTTTCCTAATCTTTCTGTTCAAGCGCCATCTAC” is 0.783 RPM ratio (pull-down/input); for “GATGATTGTTCTCCCAGCTGATGAATTAGTGAGTTCGAGTAAACAAATTTTCCTAATCTTTCTGTTCAAGCGCCATCTAC” it is 0.965 RPM ratio (pull-down/input); for “GATGATTGTTCTCCCAGCTGATGAATTGTTCATCTCGAGTAAACAAATTTTCCTAATCTTTCTGTTCAAGCGCCATCTAC” it is 1.13 RPM ratio (pull-down/input).

As to “GATGATTGTTCTCCCAGCTGATGAATTTAAATAATCGAGTAAACAAATTTTCCTAATCTTTCTGTTCAAGCGCCATCTAC”, the binding signal was 1.44 RPM ratio (pull-down/input). For the sequence “GATGATTGTTCTCCCAGCTGATGAATTATCGGTGTCGAGTAAACAAATTTTCCTAATCTTTCTGTTCAAGCGCCATCTAC”, the binding signal was 1.09 RPM ratio (pull-down/input). In the case of “GATGATTGTTCTCCCAGCTGATGAATTGTACACTTCGAGTAAACAAATTTTCCTAATCTTTCTGTTCAAGCGCCATCTAC”, the binding signal is 1.23 RPM ratio (pull-down/input).
